# Experimental data: PubChem BioAssay AID588855 (National Center for Advancing Translational Sciences (NCATS), 2011)
# Among all 410,000 compounds or so, about 5,000 (1.2%) were called active. Inconclusive means that the source gave no clear call. Such entries were picked first, then a sample of the others. Calls come from the whole dose curve; as a rule, active = well fitted inhibition curve with a large enough effect; inconclusive = small, poorly fitted or top-dose-only effect; inactive = no such curve, though single readings can be large or run the other way. Potencies of inconclusive entries are doubtful fits and often do not repeat.
# Assay: qHTS for Inhibitors of TGF-b; note: nearly all actives have a fitted effect of over 65% in size
# Conditions: HepG2 CAGA-GFP TGF-b/SMAD3 reporter, GFP fluorescence, 18 h, TGF-beta stimulated, 500 pg/mL final; series mostly up to 46.1 µM; activity, negative = inhibition: at the top concentration
# Summary of the method: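 Inhibition of TGF-beta-driven CAGA-GFP reporter expression in HEPG2 cells is measured by cellular GFP fluorescence after 18 h stimulation with 500 pg/mL recombinant TGF-beta in 1% FBS medium at 37 degrees C.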
# % is set by controls: 0 for no effect and ±100 for the full control effect; potency is the fitted concentration of half-maximal effect; tags give direction and shape of the fitted curve.
Structure (SMILES),Potency,"activity, negative = inhibition"
CN(C)C=Nc1ncc2c3ccccc3n(CCN(C)C)c2c1C#N,"inconclusive: 2.82 µM [inhibitor, full curve, poor fit]",–
C=CC(=O)Nc1cccc(Nc2nc(N[C@H]3CC[C@H](N(C)C)CC3)nc3c2ncn3C(C)C)c1,active: 0.708 µM,–
CCCCC(=O)Nc1nnc(C)s1,"inconclusive: 11.2 µM [inhibitor, single point]",–
Nc1nc2[nH]cc(CCc3ccc(C(=O)N[C@@H](CCC(=O)O)C(=O)O)cc3)c2c(=O)[nH]1,–,inactive: -13.7%
CC(=O)OC1C(N2CCCCC2)c2c(ccc(/C=C/C(=O)N3CCCCC3)c2O)OC1(C)C (stereo not drawn),–,inactive: -6.72%
COc1ccccc1NC(=O)N1CCN(c2ccc3nnc(-c4ccc(F)cc4)n3n2)CC1,"inconclusive: 22.4 µM [inhibitor, single point]",–
CCOc1ccc(NC(=O)Cn2nc(Cc3cccnc3)c3ccccc3c2=O)cc1,"inconclusive: 20 µM [inhibitor, single point]",–
C[C@H](CO)N1C[C@H](C)[C@@H](CN(C)Cc2ccccc2)Oc2c(NC(=O)Cc3ccccc3)cccc2C1=O,"inconclusive: 35.5 µM [inhibitor, partial curve, poor fit]",–
Cc1ccc(NC(=O)CN2c3cccc4cccc(c34)S2(=O)=O)cc1S(=O)(=O)N1CCOCC1,"inconclusive: 3.98 µM [inhibitor, full curve, poor fit]",–
C=CC[C@@H](CC(=O)N[C@H](CO)Cc1ccccc1)C(=O)N[C@H](COC(=O)[C@H](CC=C)CC(=O)OC(C)(C)C)Cc1c[nH]c2ccccc12,active: 15.8 µM,–
O=S(=O)(c1ccc(SCCOc2ccc(F)cc2)nc1)N1CCCC1,"inconclusive: 22.4 µM [inhibitor, single point]",–
CCc1ccccc1N(CC(=O)Nc1cccc(N(C)S(C)(=O)=O)c1)S(C)(=O)=O,"inconclusive: 2.51 µM [inhibitor, partial curve, poor fit]",–
O=C(Nc1nc(-c2ccccn2)cs1)C1CC1,–,inactive: -0.122%
O=C(C1CCCN(Cc2ccccc2Br)C1)N1CCCCC1 (stereo not drawn),–,inactive: -3.68%
CC(=O)Nc1ccc(Nc2ccc3c4c(cc(=O)n3C)-c3ccccc3C(=O)c24)cc1,–,inactive: 11%
COc1ccccc1N1CCN(C(=O)c2cc3c(=O)n(Cc4cccs4)ccc3nc2C)CC1,"inconclusive: 17.8 µM [inhibitor, single point]",–
CCc1c(C)nc2ncnn2c1NCCc1ccc(OC)c(OC)c1,"inconclusive: 35.5 µM [inhibitor, single point]",–
CCCCCCCc1ccc(-c2ccc(O)cc2)nc1,"inconclusive: 15.8 µM [inhibitor, single point]",–
